From article PMC4336329 (PLoS ONE, 2015)
In all, about 310,000 compounds went through this assay and about 14,000 (4.5%) showed an effect of 50% or more. Effects have a minus sign here. The list shows a part of the results.

biological target: human ether-à-go-go-related gene (hERG) potassium channel (human, UniProt Q12809); assay: primary screen, population patch clamp on CHO cells stably expressing hERG
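Also: peak tail current of the secondary pulse compared with the same well before compound.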

human ether-à-go-go-related gene (hERG) potassium channel, sequence (Q12809 whole entry, looked up): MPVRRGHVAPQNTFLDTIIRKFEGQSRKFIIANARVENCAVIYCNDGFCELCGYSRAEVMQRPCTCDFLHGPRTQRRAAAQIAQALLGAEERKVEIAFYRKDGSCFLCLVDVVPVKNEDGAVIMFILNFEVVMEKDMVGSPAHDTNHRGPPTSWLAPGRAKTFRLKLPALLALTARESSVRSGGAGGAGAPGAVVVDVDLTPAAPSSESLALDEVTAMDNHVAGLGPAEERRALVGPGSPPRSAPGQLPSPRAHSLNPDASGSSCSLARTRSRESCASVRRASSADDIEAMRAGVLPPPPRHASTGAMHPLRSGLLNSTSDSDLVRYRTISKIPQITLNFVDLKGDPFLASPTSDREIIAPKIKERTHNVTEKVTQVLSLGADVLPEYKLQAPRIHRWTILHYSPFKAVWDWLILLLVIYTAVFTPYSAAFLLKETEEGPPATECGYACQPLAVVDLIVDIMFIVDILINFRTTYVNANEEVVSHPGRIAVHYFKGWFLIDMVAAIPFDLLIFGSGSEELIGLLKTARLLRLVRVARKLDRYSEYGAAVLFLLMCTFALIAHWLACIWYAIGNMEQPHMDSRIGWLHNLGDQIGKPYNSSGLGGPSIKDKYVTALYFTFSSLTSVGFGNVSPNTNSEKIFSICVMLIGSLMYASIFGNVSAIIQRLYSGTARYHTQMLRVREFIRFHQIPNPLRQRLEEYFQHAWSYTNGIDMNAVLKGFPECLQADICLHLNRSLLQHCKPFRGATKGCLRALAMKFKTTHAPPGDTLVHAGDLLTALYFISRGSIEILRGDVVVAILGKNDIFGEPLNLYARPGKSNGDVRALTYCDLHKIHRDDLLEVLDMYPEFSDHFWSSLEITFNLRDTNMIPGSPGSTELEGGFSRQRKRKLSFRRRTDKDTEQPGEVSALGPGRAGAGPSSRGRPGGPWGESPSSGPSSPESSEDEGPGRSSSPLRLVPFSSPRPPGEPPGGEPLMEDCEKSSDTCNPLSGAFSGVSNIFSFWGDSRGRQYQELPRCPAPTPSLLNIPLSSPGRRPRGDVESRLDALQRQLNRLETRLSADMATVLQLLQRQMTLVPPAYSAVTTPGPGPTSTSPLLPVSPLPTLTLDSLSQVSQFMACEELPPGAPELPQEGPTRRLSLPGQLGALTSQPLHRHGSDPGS

Row | Compound | hERG current change (%, negative = inhibition) at 10uM
1 | COc1ccc(C(=O)O/N=C(\C)c2nccs2)cc1 | 9.15%
2 | CC1=NNC(=O)C1Cc1ccccc1 (stereo not shown) | 4.76%
3 | CC(C)C(=O)Nc1sc2c(c1-c1nc3ccccc3[nH]1)CCCC2 | 5.94%
4 | CC(C)c1ccc(OCC(=O)Nc2ccccc2C(=O)N2CCOCC2)cc1 | -18.9%
5 | Cc1ccc(C(=O)NN2C(=O)C3C(C2=O)C2C=CC3C23CC3)cc1 (stereo not shown) | 15.9%
6 | O=S(=O)(CC12C3C4C5C1C2C(Br)(C43)C51OCCO1)c1ccccc1 (stereo not shown) | 12.1%
7 | CN1CCN(C(=S)SCC(=O)N2CCCc3ccccc32)CC1 | -2.03%
8 | COc1ccc2oc(C(=O)CCC(=O)O)c(N)c2c1 | 4.93%
9 | Cc1ccc(NC(=O)CC2SC(=Nc3ccc(O)cc3)NC2=O)cc1 (stereo not shown) | 20.8%
10 | CCCC(=O)Nc1ccc(-c2nc3cc(C)ccc3o2)cc1 | 13%
11 | COc1ccccc1CNC(=O)c1c(O)c2cc(OC)c(OC)cc2[nH]c1=O | 6.86%
12 | CCOC(=O)C1=C(C)Nc2ccccc2N=C1NC(=O)c1oc2ccccc2c1COC | -14.5%
13 | Brc1cccc(/C=N\n2cnnc2)c1 | -3.55%
14 | Cc1ccccc1CS(=O)(=O)c1snnc1C | 5.66%
15 | CCc1ccccc1N(CC(=O)N1CCN(c2ccccc2)CC1)S(C)(=O)=O | -9.83%
16 | Cc1ccc([N+](=O)[O-])cc1N/C=C/C(=O)c1ccco1 | -3.17%
17 | Cc1ccc(CCNC(=O)c2cc(S(=O)(=O)N3CCCC3)cn2C)cc1 | -15.4%
18 | COc1ccc(/C=N/Nc2ncc(C(F)(F)F)cc2Cl)cc1OC | 3%
19 | CC1CCC2(CC1)NC(=O)c1ccccc1O2 (stereo not shown) | -4.85%
20 | CC(C)(C)c1ccc(OCC(=O)N(c2ccccn2)C2CCCCC2)cc1 | -6.47%
21 | O=C(CCCOC(=O)c1ccc(O)cc1O)c1ccccc1 | -13.7%
22 | CC(=O)N1CCc2c(sc(NC(=O)c3cccc(N4C(=O)CCC4=O)c3)c2C(N)=O)C1 | 13.3%
23 | O=C(c1cc(N2CCOCC2)c(F)cc1[N+](=O)[O-])N1CCOCC1 | 16.7%

Row | Compound | hERG current change (%, negative = inhibition) at 10uM
24 | COc1ccc(Br)cc1C(=O)Nc1cccc(C)c1 | 0.491%
25 | CN(C)c1cc[n+](CC(=O)Nc2ccc(Cl)cc2)cc1.[Cl-] | 7.28%
26 | O=C(O)CC1(CC(=O)Nc2ccc3c(c2)C(=O)OC3)CCCCC1 | 12.2%
27 | CC(C(=O)Nc1nc2ccccc2[nH]1)N1C(=O)C2CC=CCC2C1=O (stereo not shown) | 7.17%
28 | CCCCC(=O)Nc1nnc(S(=O)(=O)N(C)Cc2ccco2)s1 | 6.09%
29 | O=S(=O)(Nc1ccncc1)c1ccccc1 | 8.95%
30 | FC(F)(F)c1cccc(-c2nn[nH]n2)c1 | 6.05%
31 | COc1ccc(NC(=S)NC(NC(=O)CF)C(Cl)(Cl)Cl)cc1[N+](=O)[O-] (stereo not shown) | 15%
32 | CCCn1c(N)c(N(CCOC)C(=O)c2cccc(C(F)(F)F)c2)c(=O)[nH]c1=O | 12%
33 | O=C(CC(=O)NN=C1CCCCCC1)NCc1cccnc1 | 46.3%
34 | CC(C)CNC(=S)N(CCCO)Cc1cc2cc3c(cc2[nH]c1=O)OCO3 | -1.73%
35 | CC(C)CC(c1nnnn1Cc1ccc2c(c1)OCO2)N1CCC(C(N)=O)CC1 (stereo not shown) | 25.8%
36 | Cl.NCCSC1CC(=O)N(c2ccc(F)cc2)C1=O (stereo not shown) | 17%
37 | CCc1n[nH]c(=S)n1/N=C/c1c[nH]c2ccc(Br)cc12 | 23.9%
38 | CCn1ccc(C(=O)N2CCN(c3ncccn3)CC2)n1 | 10.3%
39 | COc1ccc(Oc2nc(C)cc(C)c2S(C)(=O)=O)cc1 | 1.99%
40 | COc1cccc(-c2nnc(NC(=O)c3ccc(S(=O)(=O)N4CC(C)OC(C)C4)cc3)o2)c1 (stereo not shown) | -10%
41 | Cc1ccc(NC(=S)NCC(O)c2ccccc2)c(C)c1 (stereo not shown) | 15.6%
42 | COc1ccc(-c2nc3ccccc3o2)cc1NC(=O)c1ccc(Br)o1 | 4.92%
43 | Cc1onc(-c2ccccc2)c1C(=O)NCCN1CCOCC1 | 16.8%
44 | Cc1ccc(OCC(=O)N(Cc2ccc(N(C)C)cc2)C2CCS(=O)(=O)C2)cc1C (stereo not shown) | -19.3%
45 | CCOC(=O)C1(CC2CC2)CCN(Cc2cn(C)c3ccccc23)CC1 | -31%
46 | Cc1nc(C(=O)Nc2cccc(Cl)c2Cl)nn1-c1cc(OC(C)C)c(Cl)cc1Cl | 31.1%

Row | Compound | hERG current change (%, negative = inhibition) at 10uM
47 | O=C(Nc1cccc(NC(=O)c2cccc(F)c2)n1)c1cccc(F)c1 | -10%
48 | COC(=O)CCN(c1ccccc1)S(=O)(=O)c1cc(-c2cc(C)no2)ccc1C | -23.9%
49 | CCOC(=O)c1c(-c2ccc(C)cc2)csc1/N=C(\C)C1=C(O)c2ccccc2C1=O | 12%
50 | CN(C)/C=N/C(=S)Nc1ccccc1F | -1.61%
51 | COc1cccc(-c2cc(C(F)(F)F)n3nc(C(=O)N4CCC5(CC4)OCCO5)cc3n2)c1 | -16.2%
52 | CCOc1ccc(N2C(=O)Nc3ccccc3C2(O)C(=O)NCc2ccccc2)cc1 (stereo not shown) | 19%
53 | O=C(N/N=C/c1ccc[nH]1)c1cccnc1 | 3.61%
54 | O=C1CCN(C(=O)CSc2ccc(Cl)cc2)N1 | 17.4%
55 | Cc1cccc2cc(C#N)c(SCC(=O)Nc3ccccc3N3CCOCC3)nc12 | 11.6%
56 | O=C(COC(=O)Cc1ccc(F)cc1)NCc1ccco1 | 0.961%
57 | O=C(CCC(=O)OCc1cccc(C(=O)Oc2ccccc2)c1)Nc1cccc2ccccc12 | 8.85%
58 | O=C(c1cccnc1)c1ncc(C(F)(F)F)cc1Cl | -3.33%
59 | CC(C)(C#N)c1cc(Cn2cncn2)cc(C(C)(C)C#N)c1 | -5.31%
60 | CCn1c(CNC(=O)c2ccc3c(c2)OCO3)nnc1SCC(=O)Nc1cc(C)ccc1OC | -25.4%
61 | NC(=S)NNc1c(F)c(F)c(F)c(F)c1F | 28.9%
62 | Cc1sc2nc(NCCO)[nH]c(=O)c2c1C | 11.5%
63 | O=c1cccccc1NN=C1CCCCCC1 | 12.5%
64 | COCCCN1C(=O)C(O)=C(C(=O)c2ccco2)C1c1ccc(Br)cc1 (stereo not shown) | -6.68%
65 | O=C(COC(=O)c1cc(=O)[nH]c2ccccc12)NCc1ccc(F)cc1 | -11.5%
66 | CN(C)CCCn1c2c(c(SCC(=O)Nc3cccc4ccccc34)nc1=O)CCC2 | -38.4%
67 | COc1ccc(CNC(=O)CNC(=O)c2ccc(Br)o2)cc1OC | 23.7%
68 | CC(C)CC(=O)N1CCN(Cc2cccc([N+](=O)[O-])c2)CC1 | 5.78%
69 | CC1CCCN(CCCN2C(=O)C3C(C(=O)Nc4ccc(Cl)cc4)C4C=CC3(O4)C2C(=O)NC2CCCCC2)C1 (stereo not shown) | -7.67%

Row | Compound | hERG current change (%, negative = inhibition) at 10uM
70 | CC1(C)Cc2c(c(-c3ccccc3)[nH]c(=O)c2C#N)CS1 | 15.3%
71 | Cn1ccnc1C1CCCCN1Cc1nc(Cc2cccc(C(F)(F)F)c2)no1 (stereo not shown) | -15.4%
72 | CCNc1nc(Cl)nc(-c2cn(-c3ccccc3)c3ccccc23)n1 | 11.5%
73 | O=C(c1ccc([N+](=O)[O-])cc1)N1CCOC12CCN(c1ncc(C(F)(F)F)cc1Cl)CC2 | 9.88%
74 | Nc1ccn([C@@H]2O[C@H](CO)[C@@H](O)[C@@H]2O)c(=O)n1 | -2.36%
75 | Cc1ccc(-c2nn3nnnc3c3ccccc23)cc1C | -1.31%
76 | Nc1cnn(Cc2ccccc2F)c1 | 16.3%
77 | Oc1[nH]c(N=C2N=c3ccccc3=N2)c2ccccc12 | 5.16%
78 | COc1ccc(S(=O)(=O)N2CCN(c3ncnc4c(-c5ccccc5)nsc34)CC2)cc1 | -9.1%
79 | CCOC(=O)C1=C(C)NC(C)=C(C(=O)OCC)C1C(=O)OC1CCOC1=O (stereo not shown) | 12.6%
80 | Cc1ccc(C)c2c1N(Cc1ccccc1)C(=O)C21OCCO1 | -21.8%
81 | COc1ccc(-n2c(Cn3c(=O)sc4ccccc43)nnc2SCC(=O)N2CCCCC2)cc1 | -37%
82 | Cc1ccc(C)c(S(=O)(=O)N2C(=S)NC(=O)C2CC(C)C)c1 (stereo not shown) | 14.5%
83 | O=C(O)CN1C(=O)CNC1=O | 16.8%
84 | Cc1cc2[nH]c(=O)cc(-c3ccccc3)n2n1 | 6.41%
85 | Cc1cccc(N(CC(=O)N=Nc2c(O)[nH]c3ccccc23)S(C)(=O)=O)c1C | -8.1%
86 | Cc1ccc(S(=O)(=O)N2CCN(C(=O)COC(=O)c3ccccc3Cl)CC2)c(C)c1 | -12.5%
87 | Cc1nn(Cc2ccccc2Cl)c(C)c1NC(=O)Cn1nc([N+](=O)[O-])c(Cl)c1C | 7.21%
88 | Cc1cn(C2OC(COC(=O)c3ccccc3)C(O)C2O)c(=O)[nH]c1=O (stereo not shown) | 16.4%
89 | COCCCN1C(=O)c2ccc(C(=O)Nc3ccccc3Cl)cc2C1=O | 2.92%
90 | COC(=O)C1C(O)=CC(=O)CC1C (stereo not shown) | 5.81%
91 | O=C1c2ccccc2S(=O)(=O)c2cc(C(=O)N3CCN(c4ccc(Cl)cn4)CC3)ccc21 | -33.1%
